We go through 1 compound from patent publication US20110117017A1, “PEPTIDES WITH PROPERTIES OF AN […] FOR THE ALPHA 1A […] RECEPTOR AND USES THEREOF” (priority 2006, published 2011).

For the test, the target named is T1, alpha1a receptor (Homo sapiens, UniProt P35348).
T1 construct: made in house; host or cells: Pichia pastoris (membranes)
T1 sequence (P35348 1-466): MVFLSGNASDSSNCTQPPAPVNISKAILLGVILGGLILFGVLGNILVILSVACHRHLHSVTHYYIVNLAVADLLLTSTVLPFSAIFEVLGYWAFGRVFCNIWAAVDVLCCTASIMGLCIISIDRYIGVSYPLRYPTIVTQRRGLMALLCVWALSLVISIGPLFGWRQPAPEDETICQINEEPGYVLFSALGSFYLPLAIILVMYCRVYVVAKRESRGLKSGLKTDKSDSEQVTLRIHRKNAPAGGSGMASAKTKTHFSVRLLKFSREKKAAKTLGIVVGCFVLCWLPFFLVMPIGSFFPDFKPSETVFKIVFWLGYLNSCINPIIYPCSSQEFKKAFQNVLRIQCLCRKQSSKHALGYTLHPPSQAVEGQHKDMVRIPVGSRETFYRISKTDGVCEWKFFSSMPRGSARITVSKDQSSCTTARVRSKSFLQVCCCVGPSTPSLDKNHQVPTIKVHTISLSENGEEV
The test can be described thus: displacement of 3H-prazosin binding to the alpha1a receptor (yeast membranes). The conditions noted are these: reflects an allosteric modulation. (In general: Loss of bound radioactivity is the signal in a displacement assay; it reports binding, not function.)

Consider `CC[C@H](C)[C@@H]1NC(=O)CNC(=O)[C@H](Cc2ccccc2)NC(=O)[C@H]([C@@H](C)CC)NC(=O)[C@H](CO)NC(=O)[C@H](CCCCN)NC(=O)[C@H](CO)NC(=O)[C@H]([C@@H](C)O)NC(=O)[C@H](C(C)C)NC(=O)[C@@H](NC(=O)[C@@H](NC(=O)[C@@H](N)CC(C)C)[C@@H](C)O)CSSC[C@@H]2NC(=O)[C@H](CC(C)C)NC(=O)[C@H](CC(N)=O)NC(=O)[C@H](CCC(N)=O)NC(=O)CNC(=O)[C@H](CC(=O)O)NC(=O)[C@@H]3CCCN3C(=O)[C@H](CSSC[C@@H](C(=O)N[C@@H](C)C(=O)N[C@@H](C)C(=O)N[C@H](C(=O)N[C@H]3CSSC[C@@H](C(=O)N[C@H]4CSSC[C@@H](C(=O)N[C@@H](CC(N)=O)C(=O)N[C@@H](CCC(=O)O)C(=O)O)NC(=O)[C@H](CCCCN)NC(=O)[C@H](CC(=O)O)NC(=O)[C@H]([C@@H](C)O)NC(=O)[C@H](CCCCN)NC4=O)NC(=O)[C@H](Cc4c[nH]cn4)NC(=O)[C@H]([C@@H](C)CC)NC(=O)[C@H](CO)NC(=O)[C@H](CC(=O)O)NC(=O)[C@H](Cc4ccc(O)cc4)NC(=O)[C@H](CC(N)=O)NC(=O)[C@H](CCC(=O)O)NC(=O)[C@@H]4CCCN4C(=O)[C@H]([C@@H](C)CC)NC(=O)[C@@H]4CCCN4C3=O)[C@@H](C)O)NC(=O)CNC(=O)[C@H](CCCNC(=N)N)NC(=O)[C@H]([C@@H](C)O)NC(=O)[C@H](CO)NC(=O)[C@H](CC(=O)O)NC(=O)[C@H](Cc3ccc(O)cc3)NC(=O)[C@H]([C@@H](C)CC)NC(=O)[C@H](CCCCN)NC(=O)[C@@H]3CCCN3C(=O)[C@H](C(C)C)NC(=O)[C@H](C(C)C)NC(=O)[C@H](Cc3ccc(O)cc3)NC(=O)[C@H](Cc3c[nH]cn3)NC(=O)[C@H](CCCNC(=N)N)NC(=O)[C@H](CCCNC(=N)N)NC(=O)[C@H](CCCCN)NC(=O)[C@H](Cc3ccccc3)NC2=O)NC(=O)[C@H](CC(=O)O)NC(=O)[C@H](CCC(=O)O)NC(=O)[C@H]([C@@H](C)O)NC(=O)[C@H]([C@@H](C)O)NC1=O` [AdTx1], for which the “displacement of prazosin binding to the alpha1a adrenergic receptor (completeness)” value is on record as “incomplete”.
